Out of some 43,000 compounds screened, about 200 (0.47%) were called active. Another 12% or so got no clear call; they are omitted. Calls follow the shape of the dose curve; as a rule, active = well fitted cell-killing curve with a large enough effect; inconclusive = small, poorly fitted or top-dose-only effect, or effect the other way; inactive = flat fitted curve, though single readings scatter. This is one part of the list.
Assay: Cell viability qHTS assay in S16 Pmp22-F2sN cells; also: nearly all actives have a fitted effect of over 65% in size
Settings: S16 Pmp22-F2sN Schwann cells (luciferase reporters placed in the Pmp22 gene) viability, CellTiter-Glo, 24 h; series mostly up to 57.5 µM; activity change, negative = cytotoxicity: at the top concentration
In short: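 Rat S16 Schwann reporter line, 24 h treatment with library compounds delivered at 23 nL per well. Cell viability by CellTiter-Glo luminescence.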
In the case of `COC(=O)c1ccc(NC(=O)CN2C(=O)c3cccc4cccc2c34)cc1`, the “activity change, negative = cytotoxicity” value is reported as inactive: 5.31%. For `O=C(CSc1nc2c([nH]c3ccccc32)c(=O)n1-c1ccc(Cl)cc1)N1CCCC1`, the “activity change, negative = cytotoxicity” value was inactive: 12.2%. For `Cc1cc(C)c(NC(=O)COc2ccc3c(C)cc(=O)oc3c2)c(C)c1`, the “activity change, negative = cytotoxicity” value was inactive: -8.52%. In the case of `O=S(=O)(NCC(Nc1ccc(Cl)cc1)c1ccccc1)c1ccccc1` (centres undefined), the “activity change, negative = cytotoxicity” value is reported as inactive: -26.2%. With `CCN(CCCNC(=O)c1cc(Nc2ccccc2OC)nc2ccccc12)c1cccc(C)c1` the “activity change, negative = cytotoxicity” value was inactive: 12%. In the case of `COc1ccc(-c2noc(C3CC(=O)N(c4ccccc4)C3)n2)c(OC)c1` (centres undefined), the “activity change, negative = cytotoxicity” value is reported as inactive: -0.0677%. In the case of `Cc1cc(C)cc(NC(=O)c2cccc3c2C(=O)N(C2CCCCC2)C3)c1`, the “activity change, negative = cytotoxicity” value is reported as inactive: 17.3%. With `O=C(COc1ccccc1[N+](=O)[O-])Nc1ccc(-c2nc3ccccc3s2)cc1` the “activity change, negative = cytotoxicity” value was inactive: 2.72%. In the case of `CCc1nn(CC(=O)NCc2ccccc2Cl)c(=O)c2cccn12`, the “activity change, negative = cytotoxicity” value is reported as inactive: 2.32%. For `COc1ccc(CCNC(=O)c2ccc3c(c2)N(Cc2ccc(F)cc2)CCS3)cc1OC`, the “activity change, negative = cytotoxicity” value was inactive: -29.6%. In the case of `Cc1nc(-c2ccc(S(=O)(=O)Nc3ccc(C)c(N(C)C)c3)cc2)co1`, the “activity change, negative = cytotoxicity” value is reported as inactive: -14.7%. For `Cc1nc(SCC(=O)Nc2ccccc2F)[nH]c(=O)c1Cc1ccccc1`, the “activity change, negative = cytotoxicity” value was inactive: 8.1%. For `O=S(=O)(c1ccccc1)c1nc(-c2cccs2)oc1SCc1ccc(F)cc1`, the “activity change, negative = cytotoxicity” value was inactive: 0.555%. With `COc1ccc(S(=O)(=O)c2cc(NS(=O)(=O)c3ccc(Cl)cc3)c(C)c(C)c2O)cc1` the “activity change, negative = cytotoxicity” value was inactive: 6.61%. With `Fc1cccc(-n2ncc3c2ncn2nc(-c4ccccc4Cl)nc32)c1` the “activity change, negative = cytotoxicity” value was inactive: -13.2%. In the case of `O=C(Cn1c(=O)c2cccn2c2ccc(F)cc21)N1CCN(c2ccc(F)cc2)CC1`, the “activity change, negative = cytotoxicity” value is reported as inactive: 2.48%. For `Cc1cccc(N2CCN(C(=O)CCn3c(=O)c4cccn4c4cccnc43)CC2)c1C`, the “activity change, negative = cytotoxicity” value was inactive: 8.22%. With `O=C(COc1ccccc1)Nc1cccc(-c2cn3cccnc3n2)c1` the “activity change, negative = cytotoxicity” value was inactive: -0.975%. With `CCOc1ccc(N(C)C(CNS(=O)(=O)c2ccccc2)c2ccccc2)cc1` (centres undefined) the “activity change, negative = cytotoxicity” value was inactive: 1.87%. In the case of `Cc1c(C(=O)Nc2ccc(F)cc2)sc2nc[nH]c(=O)c12`, the “activity change, negative = cytotoxicity” value is reported as inactive: 4.18%. For `CC(C)CCn1c(=O)c2sccc2n2c(CCCC(=O)NCc3ccc(F)cc3)nnc12`, the “activity change, negative = cytotoxicity” value was inactive: 21%. For `COc1ccccc1N1CCN(C(=O)c2cc(-c3ccccc3O)on2)CC1`, the “activity change, negative = cytotoxicity” value was inactive: 13.3%. In the case of `N#Cc1cccc(NC(=O)c2cc3c(s2)-c2ccc(Cl)cc2SC3)c1`, the “activity change, negative = cytotoxicity” value is reported as inactive: -1.65%. In the case of `Cc1ccn2c(=O)c(C(=O)NC(C)c3ccccc3)c(O)nc2c1` (centres undefined), the “activity change, negative = cytotoxicity” value is reported as inactive: 5.76%. For `CCOc1ccccc1CNC(=O)c1cccn1-c1nnc(N2CCCCC2)s1`, the “activity change, negative = cytotoxicity” value was inactive: -8.57%. In the case of `Cc1ccc2c(=O)cc(C(=O)Nc3ccc(S(=O)(=O)N(C)Cc4ccccc4)cc3)oc2c1`, the “activity change, negative = cytotoxicity” value is reported as inactive: -2.32%. For `CCN(CC)S(=O)(=O)c1ccc2c(c1)c(=O)c(C(=O)N1CCN(c3cccc(C)c3)C(C)C1)cn2C` (centres undefined), the “activity change, negative = cytotoxicity” value was inactive: -2.39%. In the case of `Cc1ccc(CNC(=O)CN(c2ccc(C)cc2)S(=O)(=O)c2c(C)nn(C)c2C)cc1`, the “activity change, negative = cytotoxicity” value is reported as inactive: -1.32%. For `O=C(Nc1nnc(S(=O)(=O)N2CCCc3ccccc32)s1)c1ccccc1`, the “activity change, negative = cytotoxicity” value was inactive: -1.46%. In the case of `COC(=O)c1cnn2c(C)c(Cc3c(C)cc(C)cc3C)c(C)nc12`, the “activity change, negative = cytotoxicity” value is reported as inactive: -9.93%. In the case of `COc1ccc(NC(=O)CCn2c(=O)c3cccn3c3ccccc32)c(OC)c1`, the “activity change, negative = cytotoxicity” value is reported as inactive: -0.739%. For `CCC1CN(C(=O)Nc2cccc3c2CCCC3)c2ccccc2O1` (centres undefined), the “activity change, negative = cytotoxicity” value was inactive: -23%. With `COc1ccc(N2CC(NC(=O)C3CC3)CC2=O)cc1OC` (centres undefined) the “activity change, negative = cytotoxicity” value was inactive: -2.58%. In the case of `CC(=O)c1ccc(NC(=O)CN(C)S(=O)(=O)c2cccc3nsnc23)cc1`, the “activity change, negative = cytotoxicity” value is reported as inactive: -0.898%. With `CCCCn1c(C(C)NC(=O)c2ccccc2)nc2ccccc21` (centres undefined) the “activity change, negative = cytotoxicity” value was inactive: 5.89%. For `COC(=O)c1c(NC(=O)CS(=O)(=O)c2ccc(C)cc2)sc2c1CCCC2`, the “activity change, negative = cytotoxicity” value was inactive: -13.2%. In the case of `Cc1ccc2oc(=O)c3cnn(CC(=O)N4CCN(c5ccccc5)CC4)c3c2c1`, the “activity change, negative = cytotoxicity” value is reported as inactive: 0.393%. For `O=C(Nc1ccc(F)cc1F)c1cc2nc(-c3ccco3)cc(C(F)(F)Cl)n2n1`, the “activity change, negative = cytotoxicity” value was inactive: -17.9%. With `Cc1cc(NC(=O)CCNS(=O)(=O)c2ccc3c(c2)oc(=O)n3C)ccc1Br` the “activity change, negative = cytotoxicity” value was inactive: -14.3%. In the case of `CCN(C(=O)Cn1nnc2sc(-c3ccccc3)cc2c1=O)c1cccc(C)c1`, the “activity change, negative = cytotoxicity” value is reported as inactive: 8.64%. With `CCN(CC)C(=O)c1cc(-c2ccc(Cl)cc2)on1` the “activity change, negative = cytotoxicity” value was inactive: 8.35%. For `CCC(C)NC(=O)CSc1nc2n[nH]c(C)c2c(=N)n1-c1ccc(C)c(Cl)c1` (centres undefined), the “activity change, negative = cytotoxicity” value was inactive: -4.97%. In the case of `CCc1nn2c(=O)cc(COC(=O)c3ccccc3NC(=O)C3CCCCC3)nc2s1`, the “activity change, negative = cytotoxicity” value is reported as inactive: 14.3%. With `CCc1ccccc1NC(=O)CCc1c(C)nn(-c2ccc(N3CCOCC3)nn2)c1C` the “activity change, negative = cytotoxicity” value was inactive: -1.6%. With `O=C(c1ccc(F)cc1)n1nc(-c2ccccc2)nc1NCc1ccc(F)cc1` the “activity change, negative = cytotoxicity” value was inactive: 18.4%. With `CCc1ccc(CNCc2c(C(=O)O)n(Cc3ccc(F)cc3Cl)c3cc(OC)ccc23)cc1` the “activity change, negative = cytotoxicity” value was inactive: -0.079%. In the case of `CCOC(=O)c1c(SCC(=O)Nc2cc(Cl)cc(Cl)c2)nc(=O)[nH]c1C`, the “activity change, negative = cytotoxicity” value is reported as inactive: 2.82%. With `COc1cc(CCC(=O)NCc2ccc3c(c2)CCN3C(=O)c2ccc(F)cc2)cc(OC)c1OC` the “activity change, negative = cytotoxicity” value was inactive: 0.76%. In the case of `Cc1ccc2nc(NCc3ccc(F)cc3)c3nncn3c2c1`, the “activity change, negative = cytotoxicity” value is reported as inactive: -19.3%.

— PubChem BioAssay AID1508642 (National Center for Advancing Translational Sciences (NCATS), 2021)
% is scaled to controls: 0 for no effect and ±100 for the full control effect.
